# In PubChem BioAssay AID330 (DTP/NCI, 2004):
# Toxic doses and inconclusive results are not listed. For part of its entries the source gives two or more results. The other results are left out here. An entry can have further records. Values given together differ, and nothing given here explains why; they may come from other doses, times, organisms or constructs than stated.
# System: P388 leukemia ip, CD2F1 mice, survival T/C
# Test: NCI In Vivo Anticancer Drug Screen. Data for tumor model P388 Leukemia (intraperitoneal) in CD2F1 (CDF1) mice
# Conditions: endpoint: median survival time, higher = longer survival
smiles,measurement,setting,value
CCC1(O)CC2CN(CCc3c([nH]c4ccccc34)C(C(=O)OC)(c3cc4c(cc3OC)N(C)C3C(O)(C(=O)NCCSSCCNC(=O)C5(O)C(O)C6(CC)C=CCN7CCC8(c9cc(C%10(C(=O)OC)CC%11CN(CCc%12c%10[nH]c%10ccccc%12%10)CC(O)(CC)C%11)c(OC)cc9N(C)C58)C76)C(O)C5(CC)C=CCN6CCC43C65)C2)C1 (configuration not stated),T/C,"dose: 1.5 mg/kg/injection, schedule: Q04DX003 (ip), vehicle: saline",112 % of control and 186 % of control
Nc1nc(N)c2cc(N3CCCC3c3ccc(Cl)cc3)ccc2n1 (configuration not stated),T/C,"dose: 6.25 mg/kg/injection, schedule: Q01DX009 (ip), vehicle: Klucel (hydroxypropylcellulose) (HPC)","115 % of control, 121 % of control, 162 % of control"
N=C(N)c1ccc(Nc2ccc(-c3cc4ccc(C(=N)N)cc4[nH]3)cc2)cc1,T/C,"dose: 15.0 mg/kg/injection, schedule: Q01DX005 (ip), vehicle: Klucel (hydroxypropylcellulose) (HPC)",116 % of control and 193 % of control
COc1cccc2c1C(=O)c1c(O)c3c(c(O)c1C2=O)C[C@@](O)(C(=O)CO)C[C@@H]3OC1CC(N2CCOCC2C#N)C(O)C(C)O1 (some centres not stated),T/C,"dose: 37.5 micrograms/kg/injection, schedule: Q04DX003 (ip), vehicle: water",108 % of control and 188 % of control
COc1cc([C@@H]2c3cc4c(cc3[C@@H](OC3OC5COC(C)OC5C(O)C3O)[C@H]3COC(=O)[C@H]23)OCO4)cc(OC)c1O (some centres not stated),T/C,"dose: 8.0 mg/kg/injection, schedule: Q01DX009 (ip), vehicle: saline",91 % of control and 446 % of control
COc1c(O)c2c(c3cc(C(=O)N4CCc5c4c(O)c(OC)c4[nH]c(C(=O)N6CC7CC78C6=CC(=O)c6[nH]cc(C)c68)cc54)[nH]c13)CCN2C(N)=O (configuration not stated),T/C,"dose: 0.06 mg/kg/injection, schedule: Q04DX003 (ip), vehicle: DMSO",118 % of control and 164 % of control
S=P(N1CC1)(N1CC1)N1CC1,T/C,"dose: 6.0 mg/kg/injection, schedule: Q01DX009 (ip), vehicle: saline",116 % of control and 187 % of control
